# Results taken from article PMC10726135.
# This is one part of the list. At the low end of the ranking, values are background and their order means little. Measured with an extract: partners may take part in the binding.
# Biological target: T1, HNF4alpha2 (COS-7 nuclear extract) (UniProt P41235)
# T1 sequence: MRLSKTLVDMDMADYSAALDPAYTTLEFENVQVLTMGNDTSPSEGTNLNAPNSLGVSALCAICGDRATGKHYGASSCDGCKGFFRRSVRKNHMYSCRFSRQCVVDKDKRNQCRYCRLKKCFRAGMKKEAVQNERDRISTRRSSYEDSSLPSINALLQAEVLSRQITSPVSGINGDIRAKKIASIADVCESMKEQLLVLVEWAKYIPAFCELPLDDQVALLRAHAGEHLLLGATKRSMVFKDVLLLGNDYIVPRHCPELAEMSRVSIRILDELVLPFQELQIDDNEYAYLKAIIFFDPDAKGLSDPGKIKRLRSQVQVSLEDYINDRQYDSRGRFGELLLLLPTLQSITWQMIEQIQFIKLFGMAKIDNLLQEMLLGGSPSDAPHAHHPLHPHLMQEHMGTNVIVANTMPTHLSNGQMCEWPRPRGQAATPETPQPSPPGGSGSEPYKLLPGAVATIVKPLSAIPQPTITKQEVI
# Test: protein-binding microarray
# Details: COS-7 nuclear extract on double-stranded Agilent 4x180k PBM; binding buffer, salt, pH and temperature not given; high values mean tight binding; double strand, one strand shown; sequences stand for … in …GCCTAGGGAGATTAGAGTATCGGTCGA
row,Sequence,binding signal (log2 normalized intensity)
1,CCCAGGGAGAGCTGGACTTTCATCTGAGTC,2.92
2,GGTGAAAGATAAGGGCTAGTTCATTAAACA,-1.11
3,TCAAAAGCTGTGTGCTCCTGTAGAATGACC,2.33
4,ACACTGATACAGCATGGCCCAGGGACTCAG,-1.25
5,TTAAGAACTGGAGTAAAGGTCACTCTTGCT,3.15
6,CACTGATAACATGAGGATACTGATAACATG,0.0281
7,GCTAATGAGATAATGCTGGTAAAGCACTTT,0.779
8,ATGGAATTTAATTAGCTTCTGTTCAGGAGT,0.684
9,GCTGTGTACTTTGAACTGAAGGATATTGGC,3.57
10,CTCAGAGTCTGTGGAGACACTGCCAGTGTC,-0.553
11,CAGTGATCTTATCGCCTAGTACTCCTGCCC,0.389
12,GGGGAGGTGGGAAAAGAAATGTAGTGACAG,-0.838
13,GCATGACCTCAACTCTCAGTTTGGCTCTTA,0.114
14,TCTAGATAAGTTTATTTACTTATGTTGTCC,1.48
15,CAAATTTGGGAGGGAAGAGGCAAGGAAAGA,-1.15
16,TAGGCCTTTCCTGGGCCTTAAAGCATGACA,-0.733
17,TCATGAGTAGGTTTACTAAAGGAAGGGAGG,-1.18
18,ATGTGTGCTTTCAGGTGTGAACCCAGGCAA,1.86
19,CATTGGAGGTCACCCTGTGTCAGCGACTGG,-1.1
20,TGGAGATAACACACAGGCTCAACGGGTTAG,-1.09

row,Sequence,binding signal (log2 normalized intensity)
1,CACCAGAAAAATGTACATGTGCAAAAGCAC,0.628
2,ACCCGTCCGCTTGATGCCTGTTGCTCAGAA,-1.08
3,ACTTCTCTCGGCCTTAAGAGTCAAAGGGCA,3.51
4,TTGGAATACATGGAATGCTCTCTCTCTTTT,0.781
5,GGGGCAGAGTGAGCAGCACTTTTGGAGTTT,1.51
6,TAGCCTTTTTGCCCACAGACTAGACCATCA,-1.11
7,ACCACCTTCCCCCATCCCCAACAAAGCTCT,4.7
8,ACAGCGAGAGTCCTCTTGGTTTATGTTCAC,1.67
9,AGTAGTTCTTCTGGTTAGTTTTTCAATGGC,1.34
10,TGTTACCTTTGGACTGTCCTTTGCTAGATT,3.5
11,CAATTTGATTTGTATGATCTTGGGTATATC,1.75
12,CCAGAATGTTCAAAAGTGTGTTGGTTTCCT,1.3
13,AAGGTGGTTGCTGTTATCTTCATTTATAGA,1.23
14,TCAGGAAGGAATAAAAGGCTGTTCTGATGC,-1.19
15,AGAAGAAACCTTTGCCCAACAGGATTAGTG,0.761
16,GAGTCTCCACTATGACCTGTGCTTTGCCAT,0.881
17,CCCGCCTAACCTTGAGGAGCCCTATCCGCA,-1.07
18,TGCTCCACGCAAACACAAAAGGATCACAGT,-1.15
19,TTGTCCAGCAGACACGGGCAGGTGAGAGGG,-1.07
20,AGTCTAGATAATCTAAAGCCGAAAGAGGGT,-1.01
